Measurements as given in patent publication US11566057B2, “Long-acting co-agonists of the glucagon and GLP-1 receptors” (Merck Sharp & Dohme Corp., priority 2017, dated 2023).
Not every detail of the peptide structures is certain; ends, links or a residue may be inferred. For some of these results: For at least one compound, name, drawing or mass did not settle the structure. Numbered stars: 1 amine (or outer) side, 2 acyl side, 3 side chain; on linkers, the order of the positions; unused ones are H or OH. Square brackets hold non-standard residues; d marks the D form. Side chains are listed from the residue outwards. Peptide text beside a SMILES is read from it. * marks the point of attachment. C20 diacid = O=C(O)CCCCCCCCCCCCCCCCCCC(=O)*; Phe(4-CH2NH2) = NCc1ccc(C[C@H](N)C(=O)O)cc1; C18 diacid = O=C(O)CCCCCCCCCCCCCCCCC(=O)*; C16 diacid = O=C(O)CCCCCCCCCCCCCCC(=O)*; γGlu = O=C(O)[C@H](CCC(=O)[*:2])N[*:1]; Met(O2) = CS(=O)(=O)CC[C@H](N)C(=O)O; Palmitoyl = CCCCCCCCCCCCCCCC(=O)*; PEG5 = NCCOCCOCCOCCOCCOCCC(=O)O; αMeD = C[C@](N)(CC(=O)O)C(=O)O; AEEA = NCCOCCOCC(=O)O; Aib = CC(C)(N)C(=O)O

How the values were obtained:
human GCGR = biological target: T1, human GCGR (Homo sapiens, UniProt P47871); test: cAMP activity assay at the Glucagon receptor (GCGR); type: cell-based; conditions: for EC50: cells expressing human GCGR, cAMP production, buffer with or without 20% human serum (not stated which), read-out: GCGR EC50 human; for hGCGR/hGLP1R (hTone): ratio of GCGR EC50 to GLP1R EC50
T1 construct: expressed in transfected cells; growth medium holds Blasticidin and Hygromycin
T1 sequence (P47871 26-477): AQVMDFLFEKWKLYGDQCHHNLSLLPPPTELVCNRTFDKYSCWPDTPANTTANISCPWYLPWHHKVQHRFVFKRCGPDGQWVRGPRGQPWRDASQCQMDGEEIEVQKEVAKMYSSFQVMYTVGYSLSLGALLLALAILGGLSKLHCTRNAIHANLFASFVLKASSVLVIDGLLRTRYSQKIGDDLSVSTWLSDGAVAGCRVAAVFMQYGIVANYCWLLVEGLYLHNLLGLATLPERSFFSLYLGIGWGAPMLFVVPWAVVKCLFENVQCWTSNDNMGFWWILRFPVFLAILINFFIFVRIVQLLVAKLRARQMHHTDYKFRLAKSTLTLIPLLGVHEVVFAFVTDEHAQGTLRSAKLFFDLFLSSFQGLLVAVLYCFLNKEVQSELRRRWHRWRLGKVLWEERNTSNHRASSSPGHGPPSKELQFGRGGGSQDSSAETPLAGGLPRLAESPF
Protocol: (§1) Activity of the peptides at the Glucagon receptor (GCGR) and GLP-1 receptor (GLP1R) was measured in a cAMP activity assay.
(§2) GCG/GLP-1 receptor co-agonist peptides were dissolved in 100% DMSO (dimethyl sulfoxide) and serially diluted to generate 10 point titrations. The peptide solutions were then transferred into 384-well assay plates (150 nL/well). Assay ready frozen cells expressing human GLP1R or human GCGR were suspended in growth media consisting of DMEM medium (GIBCO®), 10% FBS (GIBCO®), 1×NEAA(GIBCO®), 1×P/S (GIBCO®), 10 ug/mL Blasticidin (GIBCO®) and 200 μg/mL Hygromycin (GIBCO®). […] The cell suspensions (15 μL) were then added to the assay plates containing the peptide solutions (30,000 cells/well for human GCGR; 10,000 cells/well for human GLP1R). The cells were incubated for 1 hour at room temperature in the dark. Production of cAMP was determined using HitHunter™ cAMPXS kits (DiscoverX) following manufacturer protocol. The plates were incubated for overnight at room temperature in the dark. Luminescence was measured using an EnVision Multilabel plate reader (Perkin Elmer). Native GLP-1 and Glucagon (Bachem) are used as control peptides. EC50 values were calculated using uses a 4 parameter logistic fit based on the Levenberg-Marquardt algorithm.

human GLP1R = biological target: T2, human GLP1R (Homo sapiens, UniProt P43220); test: cAMP activity assay at the GLP-1 receptor (GLP1R); type: cell-based; conditions: cells expressing human GLP1R, cAMP production; buffer with or without 20% human serum (not stated which); read-out: GLP1R EC50 human
T2 construct: expressed in transfected cells; growth medium holds Blasticidin and Hygromycin
T2 sequence (P43220 24-463): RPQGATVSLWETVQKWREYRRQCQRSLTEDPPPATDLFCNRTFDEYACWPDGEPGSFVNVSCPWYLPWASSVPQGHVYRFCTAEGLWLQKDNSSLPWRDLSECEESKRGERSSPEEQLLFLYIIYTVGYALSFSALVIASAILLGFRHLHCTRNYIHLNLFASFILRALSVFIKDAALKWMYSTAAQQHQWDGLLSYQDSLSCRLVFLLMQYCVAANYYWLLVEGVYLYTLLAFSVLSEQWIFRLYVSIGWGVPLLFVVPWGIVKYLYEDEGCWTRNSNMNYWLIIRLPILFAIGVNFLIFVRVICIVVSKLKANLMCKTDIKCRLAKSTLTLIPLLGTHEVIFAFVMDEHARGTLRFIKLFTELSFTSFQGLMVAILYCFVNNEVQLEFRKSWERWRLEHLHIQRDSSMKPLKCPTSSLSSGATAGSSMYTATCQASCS
Protocol: as §1, §2

SMILES	hGCGR/hGLP1R (hTone) (human GCGR)	other results
CC(C)C[C@H](NC(=O)[C@H](Cc1ccc(O)cc1)NC(=O)[C@H](CCCCN)NC(=O)[C@H](CO)NC(=O)[C@H](Cc1ccc(O)cc1)NC(=O)[C@H](CC(=O)O)NC(=O)[C@H](CO)NC(=O)[C@@H](NC(=O)[C@H](Cc1ccccc1)NC(=O)[C@@H](NC(=O)CNC(=O)[C@H](CCC(N)=O)NC(=O)[C@@H](CO)NC(=O)[C@@H](N)Cc1c[nH]cn1)[C@@H](C)O)[C@@H](C)O)C(=O)N[C@@H](CCC(=O)O)C(=O)NC(C)(C)C(=O)N[C@@H](CCCNC(=N)N)C(=O)N[C@@H](C)C(=O)N[C@@H](C)C(=O)N[C@@H](CCCCNC(=O)COCCOCCNC(=O)COCCOCCNC(=O)CC[C@H](NC(=O)CCCCCCCCCCCCCCCCCCC(=O)O)C(=O)O)C(=O)N[C@@H](CC(=O)O)C(=O)N[C@@H](Cc1ccccc1)C(=O)N[C@H](C(=O)N[C@@H](CCC(N)=O)C(=O)N[C@@H](Cc1c[nH]c2ccccc12)C(=O)N[C@@H](CC(C)C)C(=O)N[C@@H](CC(C)C)C(=O)NC(C)(C)C(=O)N[C@H](C(=O)N[C@@H](CCCCN)C(=O)N[C@@H](CCC(N)=O)C(=O)O)[C@@H](C)O)C(C)C [TP579] (H-H[dS]QGTFTSDYSKYLE[Aib]RAAK([AEEA-AEEA-γGlu-C20 diacid])DFVQWLL[Aib]TKQ-OH)	–	EC50 (human GCGR): > 19.9 nM
CC(C)C[C@H](NC(=O)[C@H](Cc1c[nH]c2ccccc12)NC(=O)[C@H](CCC(N)=O)NC(=O)[C@@H](NC(=O)[C@H](Cc1ccccc1)NC(=O)[C@H](CC(=O)O)NC(=O)[C@H](CCCCNC(=O)COCCOCCNC(=O)COCCOCCNC(=O)CC[C@H](NC(=O)CCCCCCCCCCCCCCCCCCC(=O)O)C(=O)O)NC(=O)[C@H](C)NC(=O)[C@H](C)NC(=O)[C@H](CCCNC(=N)N)NC(=O)C(C)(C)NC(=O)[C@H](CC(=O)O)NC(=O)[C@H](CC(C)C)NC(=O)[C@H](Cc1ccc(O)cc1)NC(=O)[C@H](CCCCN)NC(=O)[C@H](CO)NC(=O)[C@H](Cc1ccc(O)cc1)NC(=O)[C@H](CC(=O)O)NC(=O)[C@H](CO)NC(=O)[C@@H](NC(=O)[C@H](Cc1ccccc1)NC(=O)[C@@H](NC(=O)CNC(=O)[C@H](CCC(N)=O)NC(=O)C(C)(C)NC(=O)[C@@H](N)Cc1c[nH]cn1)[C@@H](C)O)[C@@H](C)O)C(C)C)C(=O)N[C@@H](CCS(C)(=O)=O)C(=O)N[C@@H](CC(=O)O)C(=O)N[C@H](C(N)=O)[C@@H](C)O [TP564]	1.0	–
CC(C)C[C@H](NC(=O)[C@H](Cc1ccc(O)cc1)NC(=O)[C@H](CCCCN)NC(=O)[C@H](CO)NC(=O)[C@H](Cc1ccc(O)cc1)NC(=O)[C@H](CC(=O)O)NC(=O)[C@H](CO)NC(=O)[C@@H](NC(=O)[C@H](Cc1ccccc1)NC(=O)[C@@H](NC(=O)CNC(=O)[C@H](CCC(N)=O)NC(=O)C(C)(C)NC(=O)[C@@H](N)Cc1c[nH]cn1)[C@@H](C)O)[C@@H](C)O)C(=O)N[C@@H](CC(=O)O)C(=O)N[C@@H](C)C(=O)N[C@@H](CCCNC(=N)N)C(=O)N[C@@H](C)C(=O)N[C@@H](C)C(=O)N[C@@H](CCC(N)=O)C(=O)N[C@@H](CCCCNC(=O)CCOCCOCCOCCOCCOCCNC(=O)CC[C@H](NC(=O)CCCCCCCCCCCCCCCCC(=O)O)C(=O)O)C(=O)N[C@@H](Cc1ccccc1)C(=O)N[C@H](C(=O)N[C@@H](CCC(N)=O)C(=O)N[C@@H](Cc1c[nH]c2ccccc12)C(=O)N[C@@H](CC(C)C)C(=O)N[C@@H](CCS(C)(=O)=O)C(=O)N[C@@](C)(CC(=O)O)C(=O)N[C@H](C(N)=O)[C@@H](C)O)C(C)C [TP608] (H-H[Aib]QGTFTSDYSKYLDARAAQK([PEG5-γGlu-C18 diacid])FVQWL[Met(O2)][αMeD]T-NH2)	–	EC50 (human GCGR): 0.21 nM
CC(C)C[C@H](NC(=O)[C@H](Cc1ccc(O)cc1)NC(=O)[C@H](CCCCN)NC(=O)[C@H](CO)NC(=O)[C@H](Cc1ccc(O)cc1)NC(=O)[C@H](CC(=O)O)NC(=O)[C@H](CO)NC(=O)[C@@H](NC(=O)[C@H](Cc1ccccc1)NC(=O)[C@@H](NC(=O)CNC(=O)[C@H](CCC(N)=O)NC(=O)C(C)(C)NC(=O)[C@@H](N)Cc1c[nH]cn1)[C@@H](C)O)[C@@H](C)O)C(=O)N[C@@H](CC(=O)O)C(=O)N[C@@H](CCC(=O)O)C(=O)N[C@@H](CCCNC(=N)N)C(=O)N[C@@H](C)C(=O)N[C@@H](C)C(=O)N[C@@H](CCCCNC(=O)COCCOCCNC(=O)COCCOCCNC(=O)CC[C@H](NC(=O)CCCCCCCCCCCCCCCCCCC(=O)O)C(=O)O)C(=O)N[C@@H](CC(=O)O)C(=O)N[C@@H](Cc1ccccc1)C(=O)N[C@H](C(=O)N[C@@H](CCC(N)=O)C(=O)N[C@@H](Cc1c[nH]c2ccccc12)C(=O)N[C@@H](CC(C)C)C(=O)N[C@@H](CCS(C)(=O)=O)C(=O)N[C@@](C)(CC(=O)O)C(=O)N[C@H](C(N)=O)[C@@H](C)O)C(C)C [TP589] (H-H[Aib]QGTFTSDYSKYLDERAAK([AEEA-AEEA-γGlu-C20 diacid])DFVQWL[Met(O2)][αMeD]T-NH2)	9.6	–
CC(C)C[C@H](NC(=O)[C@H](Cc1c[nH]c2ccccc12)NC(=O)[C@H](CCC(N)=O)NC(=O)[C@@H](NC(=O)[C@H](Cc1ccccc1)NC(=O)[C@H](CC(=O)O)NC(=O)[C@H](CCCCNC(=O)COCCOCCNC(=O)COCCOCCNC(=O)CC[C@H](NC(=O)CCCCCCCCCCCCCCCCCCC(=O)O)C(=O)O)NC(=O)[C@H](C)NC(=O)[C@H](C)NC(=O)[C@H](CCCNC(=N)N)NC(=O)C(C)(C)NC(=O)[C@H](CC(=O)O)NC(=O)[C@H](CC(C)C)NC(=O)[C@H](Cc1ccc(O)cc1)NC(=O)[C@H](CCCCN)NC(=O)[C@H](CO)NC(=O)[C@H](Cc1ccc(O)cc1)NC(=O)[C@H](CC(=O)O)NC(=O)[C@H](CO)NC(=O)[C@@H](NC(=O)[C@H](Cc1ccccc1)NC(=O)[C@@H](NC(=O)CNC(=O)[C@H](CCC(N)=O)NC(=O)[C@@H](CO)NC(=O)[C@@H](N)Cc1c[nH]cn1)[C@@H](C)O)[C@@H](C)O)C(C)C)C(=O)N[C@@H](CCS(C)(=O)=O)C(=O)N[C@@H](CC(=O)O)C(=O)N[C@H](C(N)=O)[C@@H](C)O [TP578]	0.1	–
CC(C)C[C@H](NC(=O)[C@H](Cc1ccc(O)cc1)NC(=O)[C@H](CCCCN)NC(=O)[C@H](CO)NC(=O)[C@H](Cc1ccc(O)cc1)NC(=O)[C@H](CC(=O)O)NC(=O)[C@H](CO)NC(=O)[C@@H](NC(=O)[C@H](Cc1ccccc1)NC(=O)[C@@H](NC(=O)CNC(=O)[C@H](CCC(N)=O)NC(=O)C(C)(C)NC(=O)[C@@H](N)Cc1c[nH]cn1)[C@@H](C)O)[C@@H](C)O)C(=O)N[C@@H](CC(=O)O)C(=O)N[C@@H](C)C(=O)N[C@@H](CCCNC(=N)N)C(=O)N[C@@H](C)C(=O)N[C@@H](C)C(=O)N[C@@H](CCC(N)=O)C(=O)N[C@@H](CC(=O)O)C(=O)N[C@@H](Cc1ccccc1)C(=O)N[C@H](C(=O)N[C@@H](CCC(N)=O)C(=O)N[C@@H](Cc1c[nH]c2ccccc12)C(=O)N[C@@H](CC(C)C)C(=O)N[C@@H](CCS(C)(=O)=O)C(=O)N[C@@H](Cc1ccc(CNC(=O)COCCOCCNC(=O)COCCOCCNC(=O)CC[C@H](NC(=O)CCCCCCCCCCCCCCCCCCC(=O)O)C(=O)O)cc1)C(=O)N[C@H](C(N)=O)[C@@H](C)O)C(C)C [TP605] (H-H[Aib]QGTFTSDYSKYLDARAAQDFVQWL[Met(O2)][Phe(4-CH2NH2)]([AEEA-AEEA-γGlu-C20 diacid])T-NH2)	1.9	–
CCCCCCCCCCCCCCCC(=O)N[C@@H](CCC(=O)N[C@@H](CCC(=O)NCc1ccc(C[C@H](NC(=O)[C@H](CC(=O)O)NC(=O)[C@H](CO)NC(=O)[C@@H](NC(=O)[C@H](Cc2ccccc2)NC(=O)[C@@H](NC(=O)CNC(=O)[C@H](CCC(N)=O)NC(=O)[C@@H](CO)NC(=O)[C@@H](N)Cc2c[nH]cn2)[C@@H](C)O)[C@@H](C)O)C(=O)N[C@@H](CO)C(=O)N[C@@H](CCCCN)C(=O)N[C@@H](Cc2ccc(O)cc2)C(=O)N[C@@H](CC(C)C)C(=O)N[C@@H](CC(=O)O)C(=O)N[C@@H](C)C(=O)N[C@@H](CCCNC(=N)N)C(=O)N[C@@H](C)C(=O)N[C@@H](C)C(=O)N[C@@H](CCC(N)=O)C(=O)N[C@@H](CC(=O)O)C(=O)N[C@@H](Cc2ccccc2)C(=O)N[C@H](C(=O)N[C@@H](CCCCNC(=O)COCCOCCNC(=O)COCCOCCNC(=O)CC[C@H](NC(=O)CCCCCCCCCCCCCCC(=O)O)C(=O)O)C(=O)N[C@@H](Cc2c[nH]c3ccccc23)C(=O)N[C@@H](CC(C)C)C(=O)N[C@@H](CCS(C)(=O)=O)C(=O)N[C@@H](CC(=O)O)C(=O)N[C@H](C(N)=O)[C@@H](C)O)C(C)C)cc1)C(=O)O)C(=O)O [TP693] (H-H[dS]QGTFTSD[Phe(4-CH2NH2)]([γGlu-γGlu-Palmitoyl])SKYLDARAAQDFVK([AEEA-AEEA-γGlu-C16 diacid])WL[Met(O2)]DT-NH2; N-terminus assumed)	–	EC50 (human GLP1R): > 4.9 nM
